Experimental data published in PubChem BioAssay AID2546 (National Center for Advancing Translational Sciences (NCATS), 2010).
Among all 310,000 compounds or so, about 11,000 (3.5%) were called active. The shares of active, inactive and inconclusive entries below differ from those in the screen. Calls come from the whole dose curve; as a rule, active = well fitted inhibition curve with a large enough effect; inconclusive = small, poorly fitted or top-dose-only effect, or effect the other way; inactive = flat fitted curve, though single readings scatter. Potencies of inconclusive entries are left out as doubtful fits.

Test: VP16 counterscreen qHTS for inhibitors of ROR gamma transcriptional activity;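 note: Gal4-VP16 expression switched on by copper sulfate through the metallothionein promoter; nearly all actives have a fitted effect of over 50% in size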
Conditions: Drosophila S2 Gal4-VP16 UAS-luciferase, luminescence, 20 h; series mostly up to 53.6 µM
Potency is the fitted concentration of half-maximal effect; tags give direction and shape of the fitted curve.

Row | SMILES | Potency
1 | COC(=O)c1nn(-c2ccc3c(c2)CCN3C(C)=O)cc1O | active: 8.91 µM
2 | Cc1cc(C)cc(N2C(=O)CC(Sc3ncn[nH]3)C2=O)c1 (stereo not drawn) | inconclusive [inhibitor, single point]
3 | CCOc1ccc(NC(=O)CC2SC(=O)N(c3ccccc3)C2=O)cc1 (stereo not drawn) | inconclusive [inhibitor, single point]
4 | Cc1sc(NC(=O)c2cc(-c3ccccc3)nc3ccccc23)c(C(N)=O)c1C | inactive
5 | C=CCC1(C#N)C(SC)=NC2=C(C(=O)CC(C)(C)C2)C1c1ccc(Br)cc1 (stereo not drawn) | inconclusive [inhibitor, partial curve]
6 | O=C(Nc1ccc(N2CCN(C(=O)c3ccccc3)CC2)c(Cl)c1)c1ccc(Br)o1 | inconclusive [inhibitor, single point]
7 | COc1ccc(/C(C)=N/NC(=O)CNC(=O)Cc2ccccc2)c(OC)c1 | inactive
8 | N#C/C(=C/c1ccc(O)c(O)c1)c1nc2ccccc2[nH]1 | inactive
9 | Brc1ccc(-c2nnc(-c3ccccc3Br)o2)cc1 | inactive
10 | COc1ccccc1NC(=S)NC(=O)c1ccc(-c2ccc(Cl)cc2)o1 | inconclusive [inhibitor, single point]
11 | CS(=O)(=O)Nc1cccc(-c2ccc3ncnc(NCCN4CCOCC4)c3c2)c1 | inactive
12 | CCOC(=O)c1c(NC(=O)C2CC2)sc(C)c1CC | inconclusive [inhibitor, single point]
13 | Cc1cc(C)cc(NC(=O)CSc2nnnn2-c2cccnc2)c1 | inactive
14 | Cn1c(SCc2ccccc2C#N)nnc1-c1ccncc1 | inactive
15 | CCn1c(SCC(=O)N2CCCCC2C)nc2ccsc2c1=O (stereo not drawn) | inactive
16 | COc1ccccc1N1CCN(C(=O)c2ccc3c(c2)NC(=O)C(CSCc2ccccc2C)N3)CC1 (stereo not drawn) | inactive
17 | Cc1ccc(NC2Sc3ccccc3NC2=O)cc1Cl (stereo not drawn) | inconclusive [inhibitor, single point]
18 | COc1ccc(CCNC(=O)Cn2c(=O)n(Cc3ccco3)c(=O)c3ccc(Cl)cc32)cc1OC | inconclusive [inhibitor, partial curve]
19 | CCn1c(COc2ccc(Cl)cc2)nnc1SCc1nc2ccccc2[nH]1 | inconclusive [inhibitor, single point]
20 | Brc1ccc2nc(-c3c[nH]c4ccccc34)cn2c1 | inconclusive [inhibitor, partial curve]
21 | CCCSc1nnc(NC(=O)c2sc3nc(-c4cccs4)ccc3c2N)s1 | inconclusive [inhibitor, single point]
22 | CSc1ccccc1NC(=O)c1ccccn1 | active: 1.26 µM
23 | CCCCSc1nnc(-c2ccc(OC)cc2)n1C | inconclusive [inhibitor, single point]
24 | O=C(N/N=C\c1cc(Br)ccc1O)c1ccc(S(=O)(=O)N2CCCCC2)cc1 | active: 3.98 µM

Row | SMILES | Potency
25 | FC(F)(F)c1cccc(-c2noc(-c3cc(-c4ccccc4)c(C(F)(F)F)s3)n2)c1 | inactive
26 | O=[N+]([O-])c1c(C(Cl)Cl)nn(-c2ccc(Cl)cc2)c1N1CCCCC1 | inconclusive [inhibitor, single point]
27 | N#Cc1ccccc1NC(=O)CNc1ccc(Cl)c(C(F)(F)F)c1 | active: 11.2 µM
28 | CC(C)(C)n1ncc2c(=O)n(CC(=O)c3ccc(Cl)cc3)cnc21 | inactive
29 | Cc1nn(-c2ccc(Cl)c(Cl)c2)c(C)c1C(=O)O | inconclusive [inhibitor, single point]
30 | CC(C)(C)c1ccc(OCCOCCn2cnc3ccccc3c2=O)cc1 | inconclusive [inhibitor, single point]
31 | COc1ccc(C2CC(c3ccc(F)cc3)n3nc(NC(=O)c4ccco4)nc3N2)cc1 (stereo not drawn) | active: 12.6 µM
32 | CCCCN(C)C(=S)Nc1ccc(Oc2ccccc2)cc1 | inconclusive [inhibitor, single point]
33 | C/C(CC(=O)Nc1cccc(Cl)c1Cl)=N\NC(=O)c1ccccc1C | inconclusive [activator, single point]
34 | Cc1ccc(-n2c(C)n[nH]c2=S)cc1C | inconclusive [inhibitor, single point]
35 | N#C/C(=C\C1CC=CCC1)c1nc2ccccc2[nH]1 (stereo not drawn) | inconclusive [inhibitor, single point]
36 | Cc1oc2cc3oc(=O)c(CCC(=O)N4C[C@H]5C[C@@H](C4)c4cccc(=O)n4C5)c(C)c3cc2c1C | inactive
37 | Cc1ccc(C(=O)N2CCN(c3ccc(F)cc3)CC2)cc1S(=O)(=O)N1CCCCC1 | inactive
38 | CCC1=C(OC(=O)N(CC)CC)N2C(=O)OC(=NCCOC)[C@]2(Cc2ccccc2)[C@H]2C1=CC[C@H]1C(=O)N(CC(=O)OC)C(=O)[C@H]12 | inactive
39 | N#C/C(=C(/O)C(Cl)(Cl)Cl)c1nc2ccccc2[nH]1 | inconclusive [inhibitor, single point]
40 | N#Cc1cc2ccccc2nc1SCc1ccccn1 | inconclusive [inhibitor, single point]
41 | O=C(O)CSc1nnc(-c2ccccc2O)n1Cc1ccccc1 | inactive
42 | CC(=O)c1cccc(NC(=S)NC(=O)CC(C)(C)C)c1 | inconclusive [inhibitor, single point]
43 | Cc1nn(Cc2ccc(Cl)c(Cl)c2)c(C)c1NC(=O)c1noc2c1CCCCC2 | inconclusive [inhibitor, partial curve]
44 | Cc1csc(NC(=O)CCCC(=O)O)c1-c1nc2ccccc2s1 | inconclusive [inhibitor, full curve]
45 | O=C(Nc1ccc(Cl)c(Cl)c1)N1CCSC1c1ccco1 (stereo not drawn) | inconclusive [inhibitor, single point]
46 | CCOC(=O)c1ccc(N2C(=O)C=CC2=O)cc1 | active: 7.08 µM
47 | Cc1cc(NC(=O)CSc2nc(-c3ccco3)cc(C(F)(F)F)n2)n(-c2ccccc2)n1 | inactive
48 | CCn1c(CCc2ccccc2)n[nH]c1=S | inconclusive [inhibitor, single point]
